# Source: the supplement of paper PMC3334620
# Whole data set: some 33,000 sequences, median “E-score (-0.5 to 0.5)” near -0.016, cut for the highest 2% near 0.31. This is one part of the list.
# Molecular target: Cst6 (UniProt P40535)
# Experiment: PBM E-score (8-mer binding enrichment) (E-score (-0.5 to 0.5)); higher = stronger / more preferred TF binding; most listed sequences are background and not binding sites
# Conditions: protein concentration: 200 nM; construct: GST-DNA-binding domain
# Method in brief: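 Yeast transcription factors, full-length or as DNA-binding domains, were expressed with a GST tag using PURExpress in vitro transcription/translation. At about 100-200 nM they were applied to universal all-10-mer Agilent arrays, double-stranded by primer extension on fresh or once-stripped slides. Fluorescent anti-GST detected bound protein, and masliner normalised the scans. E-scores for ungapped eight-base words, pooled with reverse complements, came from the Universal PBM Analysis Suite.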
row,Sequence,PBM E-score
1,ACTGTGTC,-0.079
2,ACGAACAA,0.286
3,AATTAGGG,-0.244
4,AGTGTAAC,0.00704
5,GAAGAATA,0.0433
6,CACGCACA,0.0345
7,GCCACACA,-0.102
8,CGGGGACG,-0.208
9,ACGCGAAA,0.123
10,CTCGATCA,-0.0541
11,AGTTGATA,0.103
12,AGTCACTC,-0.033
13,GACTCACA,-0.0741
14,CTGAACAG,-0.0826
15,CTGGAACA,0.0416
16,GCGCTGCA,-0.0118
17,GTCCCGCA,-0.236
18,CGCGCTGC,-0.0228
19,CCCGCTGC,-0.0285
20,ACAGGGCA,-0.00397
21,GTCTTATA,0.0319
22,GGTATTCA,0.161
23,CACCTGTC,-0.0696
24,AGCACTCC,-0.112
25,CAGATAAG,-0.0725

row,Sequence,PBM E-score
1,CGGTCACG,-0.00354
2,GCCGGCTA,-0.169
3,AGCAAACC,0.00986
4,ACGGTCCC,-0.413
5,AGAGTCGA,-0.115
6,CTGACGAA,0.29
7,ATGGGATC,-0.0128
8,CCCCACCA,-0.0473
9,GCACTGCA,-0.0994
10,GACGCTAA,-0.0631
11,ATCTAGTC,0.0277
12,AAAACTGT,0.116
13,AAACTTAC,0.079
14,AGCTAAAC,-0.0554
15,CGTCCTCC,-0.219
16,CGTTATGA,0.0852
17,CGCTCATC,0.0975
18,GCGGAAGA,-0.00298
19,CTTGGTCA,-0.07
20,GCACGCTA,-0.14
21,AGGGCTAC,-0.215
22,AGCAGCTC,-0.28
23,ATGGGTCC,-0.242
24,CAGATCGC,0.0923
25,AGCGGGAG,-0.307

row,Sequence,PBM E-score
1,ATATCCCC,-0.155
2,GGGTCACC,-0.153
3,AGGTCAGG,-0.173
4,ATCTGGAC,-0.311
5,GGATTTCA,0.066
6,ATTTTAGC,0.0561
7,TATGGGCA,0.00542
8,CGCGTGTC,0.108
9,GCGGCCCC,-0.286
10,TGTTTAAA,0.176
11,GAACAAGC,-0.111
12,ATCATTAG,0.19
13,GAAAAGCC,-0.113
14,ATCATACA,0.268
15,ACCTGGTA,-0.23
16,ATTAGGTG,0.0133
17,ACAGCTAA,-0.103
18,CATTCCAC,-0.0469
19,CTGCTCAA,-0.162
20,AACCATAG,-0.0945
21,GGCAAGCA,-0.126
22,ACTGTGAC,0.162
23,GGCTTAGA,-0.295
24,AACTCCAG,-0.214
25,CTGGGACC,-0.291

row,Sequence,PBM E-score
1,CCGCGATC,-0.0946
2,GCGGAAGC,-0.0555
3,AGTTGGCA,-0.076
4,ACTTCACT,-0.0201
5,AATAAGGA,-0.0197
6,ATTTAAAG,0.132
7,GCAATGAA,0.223
8,GTGATAGA,0.00535
9,ACTCTGTG,-0.124
10,CCACATCA,0.142
11,AACCCCGG,-0.229
12,ATGGATTC,-0.0266
13,ACCCCTGA,-0.217
14,AAGGTCAT,-0.0103
15,CGGTGCCC,-0.0527
16,AATTGAGT,0.111
17,AAAAAAGT,0.222
18,CTGTAACA,-0.176
19,ACTATCGG,-0.109
20,CAATGTCA,0.206
21,CTTCCGTA,0.13
22,ACGTAATC,0.484
23,TCACGGCA,0.224
24,CCGAGGCG,0.0158
25,TGGACTAA,-0.101

row,Sequence,PBM E-score
1,ACACACGT,0.239
2,AGCAAAAA,0.216
3,GGATGACA,0.287
4,ATCCAAGG,0.0492
5,CTTAGTTA,0.041
6,ACAGTCGG,-0.12
7,TAACACGA,0.0703
8,AGTCCTAA,-0.0516
9,AGTGTTTA,0.147
10,CAGCTGCC,-0.146
11,AGCCAAGA,-0.0216
12,CCCTTTGC,0.0335
13,ATTTCGGC,0.0999
14,AGTGACGG,0.301
15,ACTTTGCC,-0.00947
16,AGAGAAAA,0.212
17,ATTGGACG,-0.116
18,GTATATAA,0.242
19,GTCAGTGA,0.308
20,TCCGATCA,0.0632
21,ACATATAT,0.233
22,ACGACGGC,0.00372
23,CACTACGG,-0.0659
24,CATTCGCG,-0.024
25,CGACGGGC,0.0567

row,Sequence,PBM E-score
1,CTAACGGC,0.0968
2,CAAGCATG,0.0911
3,CAATTCAA,0.145
4,ACCTTAAT,0.0706
5,AATCGGGC,-0.0357
6,GGATTGCC,-0.0937
7,ATTTAAAT,0.273
8,ATGACTCG,0.00617
9,ACACGAGC,-0.141
10,ACAATCCA,0.231
11,AACTTAGC,-0.0223
12,AGATAAAG,0.103
13,ACTCCGGC,0.0693
14,GATGCTAA,0.146
15,AAGCATAA,0.0827
16,GACAACTA,0.155
17,ATCGTAGC,0.0328
18,AAAGAGAC,0.00837
19,ATGCATCG,-0.00649
20,AGCGTCCG,-0.0013
21,AGTGTGAA,0.0896
22,GAATGTTA,0.0491
23,AATTTAGG,0.23
24,ACGGCGAC,0.217
25,CCAGCAAC,-0.05

row,Sequence,PBM E-score
1,CGGATTTA,0.131
2,AGAGGCAT,0.0976
3,AGACATAC,-0.053
4,GGACTTAC,-0.103
5,ATGAGATA,0.214
6,CCCGTCTC,-0.326
7,TCCGAGGA,-0.247
8,CCGGTCCG,-0.256
9,GCACCCAA,-0.0332
10,ATGGGTTG,-0.0487
11,CTAAGCAG,-0.126
12,TCAATCCA,0.0787
13,GCGATCAA,-0.00522
14,GTCATGTA,0.216
15,GATTGGCA,-0.0435
16,ACGAGCCT,-0.102
17,CTACCCTC,-0.178
18,ACCAGCAA,0.118
19,AGCTAGAC,-0.113
20,CGTAGGCC,-0.0444
21,GCCCTCGA,-0.25
22,AGCGTATC,-0.14
23,GGCTCACA,0.0214
24,GACACGTA,0.184
25,CAGCGTAG,-0.178

row,Sequence,PBM E-score
1,CATGTCGG,-0.0904
2,AAGGACCG,-0.0915
3,AGCGTCTC,-0.321
4,CATTCAAG,-0.183
5,CTACTTAA,-0.0101
6,CCTCCGTA,-0.179
7,AGTCCTAG,-0.275
8,GAGTATGC,-0.0395
9,GAATGGCC,-0.195
10,CTCCGGTC,-0.347
11,CATCGAGC,-0.135
12,CAGTCGTC,-0.167
13,CCTCCTGA,-0.14
14,ATACAGTA,0.0925
15,CCGGGCAG,-0.205
16,CAGCCGCG,-0.00473
17,TATTTCCA,0.0255
18,CGGAGCCC,-0.403
19,AGAAGACA,0.00595
20,AGGAGAGC,-0.31
21,CTATAGCA,0.0171
22,AAGCGTTG,-0.0825
23,ACCGTGAC,0.291
24,ACTTGACC,-0.269
25,CGTGGTAC,-0.143

row,Sequence,PBM E-score
1,AAAAATGG,0.201
2,TCCATACA,0.0501
3,CTTATTTA,0.0478
4,TAGGCCGA,-0.308
5,CAACATGC,0.163
6,CTGTTTTA,0.0619
7,CGAGTGGA,-0.231
8,AAAAGGTC,-0.131
9,GCACCGGA,-0.237
10,CCAATACC,-0.182
11,CGTCCGTA,0.171
12,ACCTAGAT,-0.0922
13,CTTGTCCA,-0.0587
14,CAACAATC,0.197
15,CCCTCTAA,-0.161
16,CAACTCGC,0.00649
17,ATAGCGAA,0.187
18,GTCACAGA,0.234
19,CACGTACG,0.151
